In all, about 310,000 compounds went through this assay and about 14,000 (4.5%) showed an effect of 50% or more. The effect is printed as a negative number. The list shows a part of the results.
biological target: human ether-à-go-go-related gene (hERG) potassium channel (human, UniProt Q12809); assay: primary screen, population patch clamp on CHO cells stably expressing hERG
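Further: peak tail current of the secondary pulse compared with the same well before compound.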

Chain of human ether-à-go-go-related gene (hERG) potassium channel (Q12809 whole entry, looked up): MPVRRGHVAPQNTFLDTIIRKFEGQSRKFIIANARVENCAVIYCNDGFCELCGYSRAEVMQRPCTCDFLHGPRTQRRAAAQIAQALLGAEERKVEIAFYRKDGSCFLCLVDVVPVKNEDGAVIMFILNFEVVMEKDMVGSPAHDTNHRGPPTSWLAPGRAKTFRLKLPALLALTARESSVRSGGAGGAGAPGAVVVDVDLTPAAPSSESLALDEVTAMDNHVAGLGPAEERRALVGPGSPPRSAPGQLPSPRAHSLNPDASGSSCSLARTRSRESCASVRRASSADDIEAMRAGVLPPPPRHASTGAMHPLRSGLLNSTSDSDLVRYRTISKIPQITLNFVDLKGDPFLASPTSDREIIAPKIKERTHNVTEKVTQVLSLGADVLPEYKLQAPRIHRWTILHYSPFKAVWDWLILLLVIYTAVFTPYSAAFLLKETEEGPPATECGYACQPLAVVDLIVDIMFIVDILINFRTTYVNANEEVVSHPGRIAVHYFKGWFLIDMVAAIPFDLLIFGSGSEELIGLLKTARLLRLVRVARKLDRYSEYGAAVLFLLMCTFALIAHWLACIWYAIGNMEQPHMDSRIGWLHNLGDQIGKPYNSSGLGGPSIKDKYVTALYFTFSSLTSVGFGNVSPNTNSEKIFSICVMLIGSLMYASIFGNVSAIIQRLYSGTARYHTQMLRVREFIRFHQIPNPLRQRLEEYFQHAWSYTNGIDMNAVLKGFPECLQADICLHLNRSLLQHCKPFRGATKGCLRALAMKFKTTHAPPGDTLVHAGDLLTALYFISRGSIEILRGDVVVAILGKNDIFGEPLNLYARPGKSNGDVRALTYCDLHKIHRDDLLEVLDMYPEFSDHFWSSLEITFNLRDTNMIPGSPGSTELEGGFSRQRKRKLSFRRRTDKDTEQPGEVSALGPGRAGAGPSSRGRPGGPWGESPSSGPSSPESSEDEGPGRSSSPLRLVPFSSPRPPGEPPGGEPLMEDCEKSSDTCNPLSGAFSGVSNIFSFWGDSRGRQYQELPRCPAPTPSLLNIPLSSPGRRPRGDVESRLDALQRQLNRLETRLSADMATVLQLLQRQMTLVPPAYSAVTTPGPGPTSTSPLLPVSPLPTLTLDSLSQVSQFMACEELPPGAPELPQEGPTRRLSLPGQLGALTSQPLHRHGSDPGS

Row | SMILES | hERG current change (%, negative = inhibition) at 10uM [%]
1 | Cc1ccc(OCCOC(=O)c2c(-c3ccccc3)noc2C)cc1 | 7.59
2 | COc1ccc(C2=C(Nc3ccc(C)cc3)c3ccccc3C2=O)cc1 | 3.57
3 | Cc1ccc2nc(-c3sc4nc(C)cc(C)c4c3N)[nH]c2c1 | 8.93
4 | O=C(CC1(O)C(=O)Nc2ccccc21)c1cccc(-n2cccc2)c1 (centres unmarked) | 26.1
5 | COc1ccc(CCCNC(=O)C2CCC(=O)N(Cc3ccccc3F)C2)cc1 (centres unmarked) | -25.9
6 | COC(=O)c1ccc(S(=O)(=O)N2CCOCC2)o1 | 31.4
7 | O=c1cc[nH]c2ccc([N+](=O)[O-])cc12 | 2.42
8 | CC(C)N1CC2(c3ccccc3)CN(C(C)C)CC(c3ccccc3)(C1)C2=O | -48.4
9 | O=C(Nc1cc(C(F)(F)F)ccc1N1CCCC1)C1CCCO1 (centres unmarked) | -12
10 | CCCc1c(OCCCOc2ccc(OCC(=O)O)cc2)ccc(C(C)=O)c1O | 21.8
11 | O=C(NC1CC2CCC(C1)N2C(=O)NCc1ccccc1)NC12CC3CC(CC(C3)C1)C2 (centres unmarked) | 16.1
12 | COc1cccc(-n2c(SCc3cc(=O)oc4cc(O)c(O)cc34)nc3ccccc3c2=O)c1 | -11.3
13 | O=C(Nc1ccccc1C(=O)Nc1ccccn1)c1cccc([N+](=O)[O-])c1 | -58.2
14 | C/C=C/CSc1nc2c(c(=O)[nH]c(=O)n2C)n1C(C)C | -1.61
15 | COc1cc(C2C(C#N)=C(N)Oc3cc(N)ccc32)cc(OC)c1OC (centres unmarked) | 12.5
16 | COc1ccc(CC(=O)Nc2ccc(S(=O)(=O)N3CCN(C)CC3)cc2)cc1 | 10.5
17 | Cc1ccc(/C=N\Nc2cn[nH]c(=O)c2Cl)cc1 | -9.41
18 | CCCCn1c(=O)[nH]c(=O)c2c1nc(-c1cc3c(cc1Br)OCO3)n2C | -18.1
19 | COc1ccc(C2NC(=S)N3C(c4ccc(OC)cc4)NC(=S)N23)cc1 (centres unmarked) | 16.2
20 | O=C(Nc1ccccc1C(=O)OCC(=O)N1CCc2ccccc2C1)c1ccco1 | -30.9
21 | CCn1c(CSc2nc(C)cc(C)n2)nnc1SCC(=O)Nc1nc(-c2ccccc2)cs1 | -9.09
22 | COc1cccc(CNC(=O)CCc2nnc(C3CCCCC3)o2)c1 | -0.274

Row | SMILES | hERG current change (%, negative = inhibition) at 10uM [%]
23 | N/C(=N\OC(=O)c1cccc([N+](=O)[O-])c1)c1ccccn1 | 16.7
24 | Cc1ccccc1C(=O)Nc1cccc(C(=O)N/N=C/c2ccc3c(c2)OCO3)c1 | -5.69
25 | Cc1occc1-c1nnc(SCC(=O)NC2CC2)n1C(C)C | 19.2
26 | O=C(c1nn2c(C(F)(F)F)cc(-c3ccc(F)cc3)nc2c1Cl)N1CCOCC1 | -10.2
27 | CCCCn1c(N)c(N(CC)C(=O)c2ccc(Cl)c([N+](=O)[O-])c2)c(=O)[nH]c1=O | 26
28 | O=C(N/N=C/c1c(F)c(F)c(F)c(F)c1F)c1ccc(Cn2cc(Br)cn2)o1 | -15.9
29 | CCOc1ccc(NC(=O)c2ccc3c(SCC(=O)O)c4c(nc3c2)CCCC4)cc1 | 18.6
30 | CC(=O)c1nc(N2C(=O)CC(Cc3ccccc3)C2=O)sc1C (centres unmarked) | -10.2
31 | COc1cc2c(cc1NC(=O)c1cccc([N+](=O)[O-])c1)oc1ccccc12 | 1.9
32 | CN(C)c1ccc(NC(=S)NC(=O)/C=C/c2ccco2)cc1 | 13.8
33 | CC(=O)Nc1sc2c(c1C#N)CCC2 | 4.41
34 | CCOc1ccc(/C=C/C(=O)c2ccccc2)cc1OC | 11.5
35 | CCOc1ccccc1NC(=O)N1CCCC(c2nc(-c3ccc(C)o3)no2)C1 (centres unmarked) | -52.5
36 | CCOC(=O)Nc1cc(C(=O)OCC)c(C)nc1C | 6.01
37 | Cc1sc2ncnc(N(C)C3CCCCC3)c2c1C | 6.33
38 | CC(C)CN1CCC(=O)N([C@H](CSc2ccc(Br)cc2)Cc2ccccc2)CC1 | -43.2
39 | CCN(CC(=O)NCc1cccs1)S(=O)(=O)c1ccc(F)cc1 | -85
40 | Cc1onc(-c2c(Cl)cccc2Cl)c1C(=O)N1CCN(c2ccccc2F)CC1 | 7.58
41 | Cc1cc(C)nc(NS(=O)(=O)c2ccc(NS(=O)(=O)c3ccsc3)cc2)n1 | 4.33
42 | Cc1oc(-c2ccccc2Cl)nc1CSCC(=O)N1CCCC1 | -19.9
43 | COc1ccc(-c2nn(-c3ccccc3F)cc2CNCCn2nc(C)cc2C)cc1 | -50.2
44 | Cc1cc(O)c(C=O)c2c1C(=O)Oc1c(CO)c(O)c3c(c1O2)C(O)OC3=O (centres unmarked) | 0.355

Row | SMILES | hERG current change (%, negative = inhibition) at 10uM [%]
45 | CCOC(=O)C(NC(=O)CCl)(Nc1ccc(C(O)(C(=O)OCC)C(F)(F)F)cc1)C(F)(F)F (centres unmarked) | -1.19
46 | CCOc1cc(CNn2c(C)nnc2SCC(=O)NC(C)(C)C)ccc1OCC(=O)NC(C)(C)C | 13.2
47 | O=c1cc(CO)oc(CN2CCN(c3ccccc3)CC2)c1O | 16.9
48 | O=[N+]([O-])c1cncc([N+](=O)[O-])c1Nc1ccccc1Cl | -32.4
49 | CCOc1ccc(N2C(=O)CC(N3CCC(NC(=O)Nc4ccccc4)CC3)C2=O)cc1 (centres unmarked) | 1.29
50 | COCCn1ccc2c(OCC(=O)NCc3ccc(C)cc3)cccc2c1=O | -22.4
51 | CC(=O)Nc1ccc(NC(=O)CCn2c(=S)oc3ccccc32)cc1 | -1.96
52 | O=C(Nc1ccc(Oc2c(F)c(F)c(F)c(F)c2F)cc1)OC1CCN2Cc3ccccc3N=C12 (centres unmarked) | -7.91
53 | CCN1C(=O)/C(=C/c2nc3ccccc3c(=O)n2-c2ccc(C)cc2)c2ccccc21 | 5.49
54 | COC(=O)C1=C(c2ccc(F)cc2OCc2ccccc2)C[C@@H]2CC[C@H]1N2C(=O)NCCCc1ccccc1 | 4.96
55 | Cc1ccc(NC(=O)c2cc(S(=O)(=O)N3CCCCC3)c[nH]2)cc1F | 8.93
56 | COC(=O)c1ccc(N=Nc2c(C)[nH]n(-c3ccccc3)c2=O)cc1 | 15.6
57 | CCN1CCN(c2cc(C(C)C)nc3c(-c4ccccc4)c(C)nn23)CC1 | 7.76
58 | COc1ccc(C)cc1NC(=O)CNC(C)C(=O)Nc1cc(Cl)ccc1Cl (centres unmarked) | -27.2
59 | CC1COc2ccccc2N1S(=O)(=O)c1cc(Cl)ccc1Cl (centres unmarked) | 16.9
60 | Cn1ccnc1SCC(=O)N1CCc2ccccc21 | 0.132
61 | CC(C)(Oc1ccc(CCNC(=O)c2ccc(Cl)cc2)cc1)C(=O)O | 26.1
62 | COC(=O)c1sccc1NC(=O)c1ccc(OC)cc1OC | -3.19
63 | CC(C)COC(=O)C(C)Nc1n[nH]c(=S)[nH]c1=O (centres unmarked) | 20.4
64 | N#CC1=C(N)SC(N)=C(C#N)C1c1ccc([N+](=O)[O-])cc1 | 7.8
65 | COc1ccc(C)cc1NC(=O)CSc1ccc(-c2cccnc2)nn1 | -31.1
66 | O=C1CC(c2ccccc2)Cc2nc(N3CCc4ccccc43)ncc21 (centres unmarked) | 13.2

Row | SMILES | hERG current change (%, negative = inhibition) at 10uM [%]
67 | CCOC(=O)N1CCN(C(=O)c2ccc(NS(=O)(=O)c3ccc(C)cc3)cc2)CC1 | -2.76
68 | COC(=O)C1=C(c2cccc(OCc3ccccc3)c2)C[C@@H]2CC[C@H]1N2C(=O)NCc1ccc(F)cc1 | -0.06
69 | O=C(C1CCCCC1)N1CCN(S(=O)(=O)c2ccc(Cl)cc2)CC1 | -17.2
70 | C/C(Cc1ccccc1)=N\NC(=O)CNC(=O)c1ccc(Br)cc1 | 9.43
71 | Cc1ccc(-n2nc3c(c2NC(=O)c2ccc4c(c2)OCO4)CSC3)c(C)c1 | 3.77
72 | CCOc1ccc(NC(=O)CN(C)C(=O)C2CC(=O)N(Cc3ccco3)C2)cc1OCC (centres unmarked) | 1.59
73 | CN1CCN(Cn2cc(/C=C/C(=O)c3ccccc3)c3ccccc32)CC1 | -31.1
74 | O=C(CCN1C(=O)/C(=C/c2ccccc2)SC1=S)Nc1cccnc1 | 12.9
75 | CCOC(=O)CC(C#N)c1cn(C)c2ccccc12 (centres unmarked) | -17.8
76 | CCC(=O)Nc1nc(CC(=O)Nc2ccccc2OC)cs1 | -37.5
77 | CC(C)CN(CCNC(=O)CN1N=C(c2ccc(Cl)cc2)CCC1=O)CC(C)C | -42.4
78 | Cc1ccc(N(CC(=O)NC(C)(C)C)C(=O)CNC(=O)c2cccs2)cc1 | 3.7
79 | NC(=O)Cn1c(S(=O)(=O)Cc2ccccc2)nc2ccccc21 | 9.67
80 | Cc1cc(C)n2nc(N)c(N=Nc3ccccc3)c2n1 | -3.32
81 | CCN1CCCC1Cn1cnc2c([nH]c3cccc(Cl)c32)c1=O (centres unmarked) | -67.2
82 | CC(C)CC(=O)NC(NC(=S)Nc1ccccc1)C(Cl)(Cl)Cl (centres unmarked) | 6.05
83 | COc1cc(C(=O)Nc2cccc(S(=O)(=O)NCc3ccco3)c2)cc(OC)c1OC | -35
84 | Cc1cc(C)c2c(CC(=O)Nc3nccs3)coc2c1 | 10.7
85 | CCCCNC(=O)c1onc(CSc2cccc(OC)c2)c1C(=O)O | 3.99
86 | CCc1ccc(N2CC(C(=O)Nc3ccccc3F)CC2=O)cc1 (centres unmarked) | -13

Reference: publication PMC4336329 (PLoS ONE, 2015)
